# In all, about 48,000 compounds went through this assay and about 550 (1.1%) were called active. Roughly 4% stayed inconclusive and do not appear here. Cut-off read from the data, not from the text of the source: active = potency below about 15 µM; inconclusive = mostly about 16 µM to 33 µM; inactive = weaker than that. This is one part of the list.
# Target: Lysosomal acid glucosylceramidase (Homo sapiens) (UniProt P04062)
# Experiment: Glucocerebrosidase;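 note: the screen sought inhibitors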
# Conditions: purified enzyme, resorufin glucoside fluorescence (screen aimed at inhibitors), 20 min; series mostly up to 77 µM
# Method in brief: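 Wild-type enzyme at 0.2 nM final in 50mM citric acid/KH2PO4, 10mM sodium taurocholate, 0.01% tween-20, pH 5.9, with resorufin beta-D-glucopyranoside at 30 uM final. Compounds titrated, 20 min at RT, red fluorescence read; AC50 from titration.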
# Potency is the fitted concentration of half-maximal effect.
# Sequence of UniProt P04062 (P04062 whole entry, looked up): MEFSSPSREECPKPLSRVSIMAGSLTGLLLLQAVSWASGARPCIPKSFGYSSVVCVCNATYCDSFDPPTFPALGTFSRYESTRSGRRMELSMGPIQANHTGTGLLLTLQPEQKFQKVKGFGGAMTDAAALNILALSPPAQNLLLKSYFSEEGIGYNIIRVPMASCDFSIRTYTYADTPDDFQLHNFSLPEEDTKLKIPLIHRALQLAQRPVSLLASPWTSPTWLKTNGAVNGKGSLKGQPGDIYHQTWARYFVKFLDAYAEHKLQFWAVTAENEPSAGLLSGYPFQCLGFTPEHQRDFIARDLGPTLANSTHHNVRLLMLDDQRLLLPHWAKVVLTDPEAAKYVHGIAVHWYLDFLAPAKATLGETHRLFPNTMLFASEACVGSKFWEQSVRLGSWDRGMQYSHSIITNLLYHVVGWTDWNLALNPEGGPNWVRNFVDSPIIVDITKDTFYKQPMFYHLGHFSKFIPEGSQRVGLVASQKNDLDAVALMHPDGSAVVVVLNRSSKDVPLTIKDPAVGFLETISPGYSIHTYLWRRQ
row,Structure (SMILES),Potency
1,Cc1[nH]c(=O)[nH]c(=O)c1S(=O)(=O)NCC12CC3CC(CC(C3)C1)C2,inactive: > 76.9 µM
2,O=C(O)c1ccc(CNC(=O)c2ccc(Br)o2)cc1,inactive: > 76.9 µM
3,CC(C)(C)C(=O)Cn1c(NCCCO)nc2ccccc21,inactive
4,COc1ccc(C(=O)NCc2ccccc2OC)cc1,inactive: > 76.9 µM
5,O=C(COC(=O)C12CC3CC(CC(C3)C1)C2)NCc1ccco1,inactive: > 76.9 µM
6,CCOC(=O)C1C(=O)CC(C)(O)C(C(=O)OCC)C1c1cc(Br)ccc1OC (stereo not drawn),inactive: > 76.9 µM
7,COC(=O)[C@H](Cc1ccccc1)NC(=O)Nc1ccc(S(N)(=O)=O)cc1,inactive: > 76.9 µM
8,CC1(C)CC(=NO)CC(C)(C)N1,inactive: > 76.9 µM
9,CC(C)NC(=O)Cn1c(SCC(=O)N2CCCCCC2)nc2ccccc21,inactive: > 76.9 µM
10,CC1CCN(C(c2ccccc2)c2nnnn2C(C)(C)C)CC1 (stereo not drawn),inactive: > 76.9 µM
11,COc1ccc(OCCn2c(=N)n(CCO)c3ccccc32)cc1,active: 4.33 µM
12,c1cn2cc(CSC3CCCCC3)nc2s1,inactive: > 76.9 µM
13,COc1ccc(NC(=O)C2Cc3ccccc3CN2C(=O)c2ccccc2)cn1 (stereo not drawn),inactive: > 76.9 µM
14,O=C(COc1ccccc1Cl)NCCCN1CCOCC1,inactive: > 76.9 µM
15,CCNc1oc(-c2cccc3ccccc23)nc1C#N,inactive: > 76.9 µM
16,Cc1ccccc1N(CC(=O)NCCc1ccccc1)C(=O)c1ccc(N2CCCC2)nc1,inactive: > 76.9 µM
17,Cc1cc(=O)cc(C)n1-c1ccc2c(c1)nc(C)n2-c1ccccc1,inactive: > 76.9 µM
18,CCCCOC(=O)C1[C@H]2C(=O)N(Cc3cccs3)C[C@]23C=C[C@H]1O3 (stereo partly drawn),inactive: > 76.9 µM
19,CC(C)CC(=O)CN1C(=O)C2(OCCO2)c2ccccc21,inactive: > 76.9 µM
20,CCOC(=O)c1c(CN2CCCCC2C)oc2ccc(OC)cc12 (stereo not drawn),inactive: > 76.9 µM
21,CCOc1cccc(C(=O)Nc2ccccc2N2CCN(C(=O)C(C)C)CC2)c1,inactive: > 76.9 µM
22,COc1cccc(CNC(=O)C2CCCN(c3nc4ccccc4o3)C2)c1 (stereo not drawn),inactive: > 76.9 µM
23,Cc1cccnc1NC(=O)CCCN1C(=O)c2ccccc2C1=O,inactive: > 76.9 µM
24,CCOCCn1cnc2sc(C(=O)NCC(=O)OCC)c(C)c2c1=O,inactive

row,Structure (SMILES),Potency
1,CCOc1ccccc1OCCOCCN1CC(C)OC(C)C1 (stereo not drawn),inactive: > 76.9 µM
2,CCOc1cc(C)c(Cl)cc1S(=O)(=O)N(CC)CC,inactive: > 76.9 µM
3,CC(C)[C@H](NC(=O)NCc1ccc(Cl)cc1)C(=O)O,inactive: > 76.9 µM
4,Cc1ccc(CCNC(=O)C2CCCN(S(=O)(=O)c3cccc4nsnc34)C2)cc1 (stereo not drawn),inactive: > 76.9 µM
5,Nn1c(Cc2ccccc2F)nnc1SCC(=O)N1CC(=O)Nc2ccccc21,inactive: > 76.9 µM
6,COc1ccc(Cn2nnnc2C(c2ccccc2)N2CCN(C3CCCC3)CC2)cc1 (stereo not drawn),inactive: > 76.9 µM
7,Cc1ccc(-c2nc(CS(=O)CC(=O)NCCN(CC(C)C)CC(C)C)c(C)o2)cc1 (stereo not drawn),inactive: > 76.9 µM
8,CCOC(=O)Cn1c(=O)c2c(nc(Br)n2Cc2ccc(Cl)cc2)n(C)c1=O,inactive: > 76.9 µM
9,O=C(O)C1CCCCC1C(=O)NCCc1ccccc1 (stereo not drawn),inactive: > 76.9 µM
10,O=C(O)CSCc1ccc(Cl)cc1,inactive: > 76.9 µM
11,Cc1cc(CC(C)C)n(-c2nc3ccccc3c(=O)n2OCC(=O)N(C)C)n1,inactive: > 76.9 µM
12,Cc1cc(C)nc(N2CCCC(C(=O)Nc3nnc(C)s3)C2)n1 (stereo not drawn),inactive
13,COc1ccccc1C1/C(=C(/O)c2ccc(C)cc2)C(=O)C(=O)N1CC(C)O (stereo not drawn),inactive: > 76.9 µM
14,O=C(Nc1ccccc1)C1CCN(c2nccs2)CC1,inactive: > 76.9 µM
15,O=C(Oc1ccc(Cl)c2cccnc12)N1CCCCC1,inactive: > 76.9 µM
16,Cc1cc(C)nc(NC(=O)CSc2nn(C)c(=S)s2)n1,inactive: > 76.9 µM
17,CCOC(=O)C1=C(C)NC(C)=C(C(=O)OCC)C1C(=O)OCC(=O)N1CCc2ccccc21,inactive: > 76.9 µM
18,CCOc1ccccc1Nc1nc(N)nc(CN(C)C2CCCCC2)n1,inactive
19,COC(=O)c1ccc(COC(=O)c2ccc(N(C)C)cc2)cc1,inactive: > 76.9 µM
20,Oc1ccccc1-c1cc(C(F)(F)F)[nH]n1,inactive: > 76.9 µM
21,Cc1ccc(C)c2[nH]c(=O)c(CN(CC3CCCO3)C(=O)NC3CCCCC3)cc12 (stereo not drawn),inactive: > 76.9 µM
22,CCCS(=O)(=O)N1CCC(C(=O)NCCCN(C)Cc2ccccc2)CC1,inactive: > 76.9 µM
23,CC1Cc2ccccc2N1Cc1nc2scc(-c3cccs3)c2c(=O)[nH]1 (stereo not drawn),inactive: > 76.9 µM
24,CCC(=O)N(c1ccc(F)cc1)C1C=CS(=O)(=O)C1 (stereo not drawn),inactive: > 76.9 µM

row,Structure (SMILES),Potency
1,COC(=O)c1cc(COc2ccc3ccc(=O)oc3c2)c(C)o1,inactive: > 76.9 µM
2,CCOC(=O)NC(Nc1ccc(S(N)(=O)=O)cc1)(C(=O)OCC)C(F)(F)F (stereo not drawn),inactive: > 76.9 µM
3,CCOc1ccc(OCC)c(NC(=O)C2CCCN(c3nc(C)cc(C)n3)C2)c1 (stereo not drawn),inactive: > 76.9 µM
4,Cc1ccc(-c2nnc(CSc3nncn3N)o2)cc1,inactive: > 76.9 µM
5,COC(=O)C1C2C=CC3(CN(C4CCCC4)C(=O)C13)O2 (stereo not drawn),inactive: > 76.9 µM
6,COc1ccc(NC(=O)Nc2ccc(N(C)C)cc2)cc1,inactive: > 76.9 µM
7,O=S(=O)(N1CCCCCC1)N1CCN(S(=O)(=O)N2CCOCC2)CC1,inactive: > 76.9 µM
8,Cc1nc(=O)c(-c2ccccc2)c(C)n1-c1cccc(C(=O)O)c1,inactive: > 76.9 µM
9,CC(=O)Nc1ccc(Cl)cc1C(=O)O,inactive: > 76.9 µM
10,CCCC(=O)N(c1ccc2oc(=O)sc2c1)S(=O)(=O)c1ccccc1,inactive: > 76.9 µM
11,O=C(c1ccco1)N1CCN(CC2CC3C=CC2C3)CC1 (stereo not drawn),inactive: > 76.9 µM
12,COc1ccc(OC)c(C(=O)c2nc3c(n2O)CCCCC3)c1,inactive: > 76.9 µM
13,CCOc1ccc(N2CC(C(=O)Nc3ccccc3F)CC2=O)cc1 (stereo not drawn),inactive: > 76.9 µM
14,CC1(C)CC(=O)C=C(NCCCN2CCCC2=O)C1,inactive: > 76.9 µM
15,CC(=O)Nc1cccc(-c2nnc(-c3ccccc3)o2)c1,active: 13.9 µM
16,O=C(CSc1nnc2ccccn12)N1CCOCC1,inactive: > 76.9 µM
17,CCOc1cc(-c2nc(-c3ccc(C)nc3OC)no2)cc(OCC)c1OCC,inactive: > 76.9 µM
18,Cc1ccc(Nc2nc(N)nc(CC#N)n2)cc1,inactive: > 76.9 µM
19,CCOC(=O)C1C2C=CC3(CN(CCc4ccccc4)C(=O)C13)O2 (stereo not drawn),inactive: > 76.9 µM
20,O=c1cc(N2CCC3(CC2)OCCO3)[nH]c(=O)n1-c1ccc(Br)cc1,inactive: > 76.9 µM
21,O=C(CCN1C(=O)c2ccccc2C1=O)Nc1ccccn1,inactive: > 76.9 µM
22,CCOC(=O)c1sc(NC(=O)CSc2ncn[nH]2)c(C#N)c1C,inactive: > 76.9 µM
23,Cc1ccc(-n2c(SCC(N)=O)nnc2-c2cccnc2)c(C)c1,inactive: > 76.9 µM
24,COc1ccc(C(=O)Nc2ccc(N3CCN(c4ccc(OC)cc4)CC3)c(C#N)c2)cc1,inactive: > 76.9 µM

row,Structure (SMILES),Potency
1,O=C1C(=O)N(CCO)C(c2cccc(F)c2)/C1=C(\O)c1ccc(Cl)cc1 (stereo not drawn),inactive: > 76.9 µM
2,COc1cccc(NC(=O)CNC(=O)c2cccs2)c1,inactive: > 76.9 µM
3,CCc1ccccc1NC(=O)CN1CCC(NC(=O)COC)CC1,inactive: > 76.9 µM
4,Cc1cc(=O)oc2cc(OCc3ccc(S(=O)(=O)N4CCOCC4)cc3)ccc12,inactive: > 76.9 µM
5,COCCOC(=O)C1=C(N)OC2=C(C(=O)CC(C)(C)C2)C1c1cccnc1 (stereo not drawn),inactive: > 76.9 µM
6,O=C1N(Cc2ccc3c(c2)OCO3)c2ccccc2C1(O)c1c[nH]c2ccccc12 (stereo not drawn),inactive: > 76.9 µM
7,CCOc1ccc(CNC23CN4CN(CN(C4)C2)C3)cc1,inactive: > 76.9 µM
8,CCNC(=O)N1C(=O)C2(OCCO2)c2ccccc21,inactive: > 76.9 µM
9,O=C(Cn1ccc2ccccc2c1=O)NCCC(=O)NC1CCN(Cc2ccccc2)CC1,inactive: > 76.9 µM
10,Cn1ccnc1SCC(=O)c1cc2ccccc2o1,inactive: > 76.9 µM
11,O=C(COc1nnc2ccccn12)N1CCN(S(=O)(=O)c2ccccc2)CC1,inactive: > 76.9 µM
12,CCOC(=O)Cc1c(C)nc2c(C#N)c(C)nn2c1C,inactive: > 76.9 µM
13,CC(NC(=O)CC(O)(C(F)(F)F)C(F)(F)F)c1ccccc1 (stereo not drawn),inactive: > 76.9 µM
14,O=C(O)CSc1nc2ccc(Cl)cc2[nH]1,inactive: > 76.9 µM
15,Cc1ccccc1NC(=O)NCc1ccco1,inactive: > 76.9 µM
16,Cc1ccc(/C(O)=C2\C(=O)C(=O)N(c3cc(C)on3)C2c2cccc(Cl)c2)cc1 (stereo not drawn),inactive: > 76.9 µM
17,Cc1ccc(N(CC(=O)NCc2ccncc2)S(C)(=O)=O)cc1Cl,inactive: > 76.9 µM
18,CCCS(=O)(=O)N1CCC(C(=O)N2CCN(C(=O)OCC)CC2)CC1,inactive: > 76.9 µM
19,COc1cc(NC(=O)C2CC(c3cccc(OC)c3OC)=NO2)cc(OC)c1OC (stereo not drawn),inactive: > 76.9 µM
20,S=P(c1ccc(N2CCOCC2)cc1N1CCOCC1)(N1CCOCC1)N1CCOCC1,inactive: > 76.9 µM
21,Cc1cc(-c2nnc(SCc3ccccn3)o2)no1,inactive: > 76.9 µM

# Source: PubChem BioAssay AID360 (National Center for Advancing Translational Sciences (NCATS), 2006)
